Reference: article PMC4336329 (PLoS ONE, 2015)
Screen size: about 310,000 compounds; about 2,200 (0.71%) showed an effect of 50% or more. Effects have a minus sign here. The list shows a part of the results.

The compounds below were run against human ether-à-go-go-related gene (hERG) potassium channel (human, UniProt Q12809) (assay: primary screen, population patch clamp on CHO cells stably expressing hERG).
Chain of human ether-à-go-go-related gene (hERG) potassium channel (Q12809 whole entry, looked up): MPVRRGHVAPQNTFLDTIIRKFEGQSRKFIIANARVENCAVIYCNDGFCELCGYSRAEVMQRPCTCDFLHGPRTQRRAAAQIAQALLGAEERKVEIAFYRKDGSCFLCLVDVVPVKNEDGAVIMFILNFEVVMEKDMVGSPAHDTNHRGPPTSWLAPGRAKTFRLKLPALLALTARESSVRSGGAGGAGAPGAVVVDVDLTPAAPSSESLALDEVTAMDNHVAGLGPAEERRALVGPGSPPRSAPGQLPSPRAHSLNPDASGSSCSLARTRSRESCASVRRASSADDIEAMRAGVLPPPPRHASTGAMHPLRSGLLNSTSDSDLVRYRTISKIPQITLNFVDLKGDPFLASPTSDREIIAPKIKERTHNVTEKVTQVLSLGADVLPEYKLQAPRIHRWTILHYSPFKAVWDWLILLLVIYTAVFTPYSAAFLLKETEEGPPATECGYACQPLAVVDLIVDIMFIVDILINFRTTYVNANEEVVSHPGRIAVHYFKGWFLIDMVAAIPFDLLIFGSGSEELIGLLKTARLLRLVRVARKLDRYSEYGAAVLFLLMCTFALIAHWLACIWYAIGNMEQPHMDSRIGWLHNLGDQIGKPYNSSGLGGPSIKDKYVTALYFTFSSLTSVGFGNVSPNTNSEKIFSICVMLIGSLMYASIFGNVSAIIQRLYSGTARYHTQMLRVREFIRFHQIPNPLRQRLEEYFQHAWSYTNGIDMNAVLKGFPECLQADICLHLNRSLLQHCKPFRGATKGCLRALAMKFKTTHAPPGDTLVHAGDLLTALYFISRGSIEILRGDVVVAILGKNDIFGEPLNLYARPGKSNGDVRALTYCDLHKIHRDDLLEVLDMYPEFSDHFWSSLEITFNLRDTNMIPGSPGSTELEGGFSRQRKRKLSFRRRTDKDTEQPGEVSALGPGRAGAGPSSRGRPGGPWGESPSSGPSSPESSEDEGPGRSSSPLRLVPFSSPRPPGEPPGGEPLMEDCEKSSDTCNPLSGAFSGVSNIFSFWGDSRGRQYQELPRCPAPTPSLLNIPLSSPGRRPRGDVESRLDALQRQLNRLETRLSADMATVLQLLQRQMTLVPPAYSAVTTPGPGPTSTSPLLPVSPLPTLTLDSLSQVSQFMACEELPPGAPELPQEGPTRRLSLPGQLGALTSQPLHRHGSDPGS

Structure (SMILES) | hERG current change (%, negative = inhibition) at 1uM
Cc1cc(NC(=O)CSc2nnc(C)o2)no1 | 14%
Cc1cccc(C(C)(C)C)c1OCCn1ccnc1 | 6.51%
CNC(=O)c1c(NC(=O)CCS(=O)(=O)c2ccc(F)cc2)sc(C)c1C | 7.75%
O=C(NCCN1CCN(C(=O)NC2CCCCC2)CC1)NC1CCCCC1 | 18.3%
FC(F)(F)c1cnc(Sc2ncn[nH]2)c(Cl)c1 | 3.28%
CN(C)c1ccc(CN(C)C2CCCCC2)cc1 | 11.8%
Cc1ccc(C)c(C(C)NC(=S)NCc2ccc(F)cc2)c1 (stereo not drawn) | 15.1%
CCOC(=O)NC(=O)CSc1nnnn1-c1ccc(C)cc1 | 6.56%
O=S(=O)(Cc1ccccc1)N1CCN(c2ncccn2)CC1 | 18.7%
Cc1c(CC(=O)N2C[C@H]3C[C@@H](C2)c2cccc(=O)n2C3)c(=O)oc2cc3occ(C(C)(C)C)c3cc12 | -56.8%
CN(C(=O)CCn1c(=S)oc2ccccc21)c1ccc(F)cc1 | -3.7%
O=C(N/N=C1/CCCc2ccccc21)C(c1ccccc1)c1ccccc1 | -15.8%
Cc1nnc(NC(=O)CSc2nccn2C)s1 | 7.66%
CNC(=O)c1ccc(Nc2nnc(-c3ccc(O)cc3)c3ccccc23)cc1 | 12.8%
S=C(NC1CCCC1)NN1CCOCC1 | 7.97%
CN(CC(=O)Nc1ccccc1Cl)C(=O)CSc1nncn1C | 10.5%
CCOc1ccc(-n2c(=O)cc(N3CCN(c4ccc(F)cc4)CC3)[nH]c2=O)cc1 | 9%
CCOC(=O)c1ccc(CSc2nnc(-c3ccncc3)n2N)cc1 | 7.04%
CC1CN(S(=O)(=O)c2ccc(C(=O)Nc3ccc(S(=O)(=O)Nc4nccs4)cc3)cc2)CC(C)O1 (stereo not drawn) | 7.33%
CC(C)(C)CC(=O)NC(=S)NCCc1ccccc1 | -0.941%
Cc1cc(OCCCC(=O)NCc2cccs2)ccc1Cl | 15%
CCCCN(C(=O)Cn1nnc2ccccc21)C(C(=O)NCCOC)c1ccccc1 (stereo not drawn) | 6.24%
O=S(=O)(ON(c1ccccc1)S(=O)(=O)c1ccccc1)c1ccccc1 | 7.23%
Cc1ccccc1N=Nc1ccc(O)c2ncccc12 | 14.1%
C/C(=N/OC(=O)c1ccc(Br)cc1)c1ccc(C)cc1 | 16.6%
CCOc1ccccc1OCCCCOc1ccccc1F | -3.67%
O=C(O)C(=O)O.OC(CON=C1c2ccccc2-c2ccccc21)CN1CCNCC1 (stereo not drawn) | 0.0354%
